Values joined by “and” are separate entries in the source; they are usually repeats but may differ in a detail not shown here. Equal values may be shown once. In all, about 48,000 compounds went through this assay and about 1,200 (2.5%) were called active. Not shown: some 2% with an inconclusive outcome.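 Rule for the calls: active = activation of at least 60% and not above a set upper limit (about 1 call in 100 departs from these limits); inconclusive = activation of 40% to 60%, or above that upper limit; inactive = activation under 40%.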 Some of the results follow.
Target: Probable G-protein coupled receptor 32 (Homo sapiens) (UniProt O75388)
Assay: qHTS for Agonists of Human Resolvin D1 Receptor DRV1; note: 0% is about no effect
Settings: CHO-K1 GPR32 beta-arrestin PathHunter luminescence, 90 min; at 76.9 µM; active compounds read high; zero percent set by DMSO-only wells
Outline: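 GPR32 activation in stably transfected CHO-K1 cells, detected as beta-arrestin recruitment by enzyme-fragment complementation. Compound exposure: 90 min, 37 °C.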

UniProt O75388, sequence (O75388 whole entry, looked up): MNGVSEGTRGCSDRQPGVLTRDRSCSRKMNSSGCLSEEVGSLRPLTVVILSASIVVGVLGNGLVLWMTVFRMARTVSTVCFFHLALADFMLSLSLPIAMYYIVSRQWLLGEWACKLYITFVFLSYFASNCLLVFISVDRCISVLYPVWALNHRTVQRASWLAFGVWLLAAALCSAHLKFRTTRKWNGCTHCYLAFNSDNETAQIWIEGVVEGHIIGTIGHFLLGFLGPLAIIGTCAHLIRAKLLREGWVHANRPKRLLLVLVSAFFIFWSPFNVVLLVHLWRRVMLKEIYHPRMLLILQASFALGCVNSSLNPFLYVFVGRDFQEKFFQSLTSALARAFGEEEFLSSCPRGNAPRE

activation, active:
O=C(CSc1cn(CCNC(=O)c2c(F)cccc2F)c2ccccc12)Nc1ccc2c(c1)OCCO2 68.5%
COc1ccc(-n2c(=O)c3ccc(C(=O)NCc4ccc(C)cc4)cc3n(CC(=O)Nc3ccc(F)cc3)c2=O)cc1 93.6%

activation, inactive:
CCc1ccccc1NC(=O)CSc1nc(-c2ccccc2OC)nc2c1Cc1c(CO)cnc(C)c1O2 -28.3%
Cc1cccn2c(=O)c3cc(C(=O)NCc4ccccc4)c(=N)n(CCOCCO)c3nc12 3.91%
CCOC(=O)CC1c2cc(OCC)c(OCC)cc2CCN1C(=O)Nc1cccc(Cl)c1 (stereo not drawn) -20.9%
CCCc1ccc(S(=O)(=O)N2CCC(Oc3ccc(-n4cnnn4)cc3)CC2)cc1 2.05%
CNC1(C)C2CCC(C2)C1(C)C (stereo not drawn) -10.5% and 1.59%
CCOC(=O)c1[nH]c(C)c(CCC(=O)NCc2ccccc2Cl)c1C -12.6%
CNC(=O)c1ccc(Nc2nnc(-c3ccc(C)c(S(=O)(=O)N(C)C)c3)c3ccccc23)cc1 6.03%
Cc1ccc(NC(=O)CSc2nc(=O)n(CCCN(C)C)c3c2CCC3)cc1F -10.1%
O=C(NCc1ccccc1)c1ccc2c(c1)CCN2S(=O)(=O)c1ccccc1 -24.4%
CCC(=O)Nc1ccc(-c2nnc3c4ccccc4c(C)nn23)cc1 -0.898%
NC(=O)C1(N2CCCCC2)CCN(CCCC(=O)c2ccc(F)cc2)CC1 3.09%
COc1ccc(CCNC(=O)CCCn2c(=O)c3ccccc3n(Cc3c(C)cc(C)cc3C)c2=O)cc1OC 1.56%
CCC(=O)N1c2ccc(S(=O)(=O)N3CCC(C)CC3)cc2CC1C (stereo not drawn) -8.29%
CCCCC(CC)CNC(=O)C1CCC(CNS(=O)(=O)c2cccc3nsnc23)CC1 (stereo not drawn) 20.4%
Cc1cc(C)cc(OCCCn2c(CCNC(=O)C3CCCCC3)nc3ccccc32)c1 -13.3%
Cc1ccc(C)c(NC(=O)Cn2cc(C(=O)c3ccc(Cl)cc3)c(=O)c3ccc(C)nc32)c1 12%
O=C(CC1C(=O)OCCN1Cc1ccccc1)Nc1ccc(F)cc1 (stereo not drawn) -2.42%
N#Cc1ccc(CSc2nc3c(c(=O)[nH]2)CCC3)cc1 12.5%
COc1cc(NC(=O)CSc2nc(-c3ccc(C)cc3)nc3c2Cc2ccccc2O3)cc(OC)c1 7.6%
Cc1cccc(C)c1-n1ncc(C(=O)N2CCN(c3ccccn3)CC2)c1C1CCN(C(=O)OC(C)(C)C)CC1 -0.687%
CC1CCN(S(=O)(=O)c2ccc(C(=O)Nc3sc4c(c3C(N)=O)CC(C)(C)NC4(C)C)cc2)CC1 -30.1%
CCC1CCc2nc3sc(C(=O)Nc4ccc(F)cc4F)c(N)c3cc2C1 (stereo not drawn) 21.7%
CCOC(=O)c1cc(C)n(CC2CCC(C(=O)Nc3ccc(Cl)cc3)CC2)c1C (stereo not drawn) -3.24%
COc1cc(NS(=O)(=O)c2ccc(NC(=O)c3ccccc3C(=O)O)cc2)nc(OC)n1 -4.27%
CCCCNC(=O)CSc1nc2nc(C)c(Cc3ccccc3C)c(C)n2n1 -16.2%
COc1cc(OC)c(NC(=O)NC(C)c2c(-n3cccc3)sc(C)c2C)cc1Cl (stereo not drawn) -20.7%
Cc1ccc2cccc(NC(=O)c3ccc(-c4cccc([N+](=O)[O-])c4)o3)c2n1 34.5%
CCOc1ccc(CCNC(=O)Cn2nnc(-c3ccccc3)n2)cc1OCC -0.315%
CC(=O)Nc1cccc(C(=O)NCc2ccc3c(c2)CCN3C(=O)c2ccccc2)c1 -9.74%
COc1ccc(/C=C/c2nc(C#N)c(NCCc3ccc(OC)c(OC)c3)o2)cc1OC -2.73%
COc1cccc(C(=O)Nc2cc(-c3ccccc3)no2)c1 7.47%
CC(C)CC(=O)Nc1ccc(C(=O)OCc2cc(=O)n3nc(C(C)C)sc3n2)cc1 0.802%
CCOC(=O)c1sc(NC(=O)/C=C/c2ccc(OCC)cc2)c(C(=O)OCC)c1C 1.83%
COc1ccc(C(=O)N2CC(=O)Nc3ccc(F)cc3C2c2ccc(F)cc2)c(OC)c1 (stereo not drawn) -17.9%
CCOc1ccccc1NC(=O)Cn1cnc2onc(-c3ccc(F)cc3)c2c1=O -1.94%
O=C(OCc1cc(=O)n2nc(C3CC3)sc2n1)c1ccc(F)cc1 -21.2%
CCCc1nc(C)c2c(=O)[nH]c(-c3cc(S(=O)(=O)N4CCN(CC)CC4)ccc3OCC)nn12 12.3%
Cc1cc(C)cc(NS(=O)(=O)c2ccc3[nH]cc(C(=O)N4CCCC4)c(=O)c3c2)c1 -4.92%
CC(C)CC(NS(=O)(=O)c1ccc2c(c1)oc(=O)n2C)C(=O)NCCc1ccc(Cl)cc1 (stereo not drawn) 2.87%
COC(=O)c1ccc(NC(=O)c2cc(S(=O)(=O)N3CCc4ccccc43)cn2C)cc1 -15.4%
Cc1ccc(NC(=O)c2oc3ccccc3c2NC(=O)c2cc3ccccc3o2)cc1 -2.33%
CCCCc1nnc(SCc2cc(=O)c3cc(C(=O)OCC)ccc3[nH]2)n1C -4.53%
O=C(NCc1cccnc1)C1CCN(Cc2cc3ccccc3n2Cc2cccc(Cl)c2)CC1 14.6%
O=C(Nc1cccc(C(=O)N2CCN(c3ccc(Cl)cc3)CC2)c1)c1nsc2ccccc12 -1.67%
CC1=C(C(N)=O)C(c2cccc(Br)c2)n2nc(SCc3ccccc3)nc2N1 (stereo not drawn) 0.76%
COc1cccc(NC(=O)Cn2cc(S(=O)(=O)N3CCCC3)c(S(=O)(=O)N3CCCC3)c2)c1 -8.48%
Cc1ccccc1CNC(=O)Cn1ncn2nc(-c3cccs3)cc2c1=O -9.87%
CCOc1ccccc1CNC(=O)c1cc2cc(S(=O)(=O)N3CCCCC3)ccc2n1C -0.884%
CCc1ccc2oc(-c3cccc(NC(=O)c4ccc(N5CCC(C)CC5)c([N+](=O)[O-])c4)c3)nc2c1 -5.85%
CCC(C)(CN(C)C)OC(=O)c1ccccc1 (stereo not drawn) 9.18%
CC(=O)Nc1ccc(NC(=O)CCNS(=O)(=O)c2cccc3nsnc23)cc1 -39.6%
CCC(Oc1ccccc1)C(=O)Nc1ccc2oc(-c3ccc(OC)cc3)nc2c1 (stereo not drawn) -14.5%
Cc1cccc(CSc2cn(CC(=O)N3CCCC3)c3ccccc23)c1 -13.6%
Cc1cc(N2CCCCC2)nc2ccc(NC(=O)/C=C/c3ccccc3OC(C)C)cc12 -29%
O=C(COc1ccc(S(=O)(=O)NC2CCCCC2)cc1)Nc1ccc(C(F)(F)F)cc1 15.1%
Cc1ccc(CNC(=O)CSCc2ccc(F)cc2)cc1 -14.5%
O=S(=O)(c1ccccc1)n1nc(-c2ccccc2)nc1NCc1ccc(Cl)cc1 -4.46%
CCOc1cccc(CC(=O)N2CCc3c([nH]c4ccccc34)C2c2ccc(F)cc2)c1OCC (stereo not drawn) -24%
O=C(O)CCc1nc2ccccc2[nH]1 0.246%
Cc1ccc(C(=O)COC(=O)C(CC(C)C)NC(=O)C2CCC(C)CC2)cc1 (stereo not drawn) -0.0314%
CCc1ccccc1NC(=O)c1ccc2nc(CCc3ccccc3)oc2c1 -12%
CCOc1ccc(CC(=O)Nc2c(C(=O)c3ccc(C)cc3)oc3ccccc23)cc1OCC 23.1%
CCC(=O)N1CCc2cc(Br)cc(S(=O)(=O)N3CCCC(C(=O)Nc4cccc(Cl)c4C)C3)c21 (stereo not drawn) -3.36%
CCCCNC(=O)CCn1c(=O)c2ccccc2n(Cc2ccccc2C#N)c1=O 0.495%
CC(=O)c1cccc(NC(=O)C2CCCN(c3nnc(-n4cccc4)s3)C2)c1 (stereo not drawn) 5.83%
O=C(Cc1cccc([N+](=O)[O-])c1)NCc1nc2cccnc2n1Cc1ccc(F)cc1 -16.4%
CCCN(CCC)CCCNC(=O)C1CCCN(S(=O)(=O)c2cccc3nsnc23)C1 (stereo not drawn) -10.3%
CCOc1ccc(NS(=O)(=O)c2cc(Br)cc3c2N(C(=O)C2CC2)CC3)cc1 14.9%
Cn1c(=O)cc(OCCCC(=O)Nc2ccc(F)cc2)c2ccccc21 0.209%
Cc1ccccc1-c1nc(CS(=O)(=O)CC(=O)N2CCN(c3ccccc3)CC2)c(C)o1 20.6%
COc1ccc(CNC(=O)Cc2csc3ccccc23)cc1OC -16.8%
CCc1nn(CC(=O)N2CCCCC2)c(=O)c2cc3sccc3n12 0.18%
COc1cccc(NC(=O)CCNS(=O)(=O)c2ccc(Br)s2)c1 13.1%
Cc1ccc(C)c(N2CCN(CCCNC(=O)Nc3cc(Cl)ccc3C)CC2)c1 -3.85%
COc1cc(Br)c(/C=C(\C#N)c2nc3ccccc3[nH]2)cc1OC -19.8%
CC(NC(=O)c1cc(Sc2ccc(F)cc2F)nc2ccccc12)c1ccccc1 (stereo not drawn) -25.1%
CCc1ccccc1NC(=O)C1CCC(CNS(=O)(=O)c2ccc3c(c2)CC(C)N3C(C)=O)CC1 (stereo not drawn) -8.88%
CC(C)CN1CCc2nc(N3CCN(c4ncccn4)CC3)ncc2C1 -25%
COc1cccc(C(=O)NCC(c2ccc(N(C)C)cc2)N2CCCC2)c1OC (stereo not drawn) -0.929%
CC(C)OCCCNC(=O)c1ccc(-n2c(-c3ccccc3)cc3c2CCCC3)cc1 -30.2%
Cc1ccc(N2C(=O)CSC23C(=O)N(CC(=O)NC2CCCCC2)c2ccccc23)cc1 (stereo not drawn) -27.3%
